{
  "source": "paper PMC4336329",
  "about": "(PLoS ONE, 2015)",
  "note": "The campaign covered roughly 310,000 compounds. About 2,200 (0.71%) showed an effect of 50% or more. Effects have a minus sign here. This is one part of the list.",
  "data": [
    {"biological_target": "human ether-à-go-go-related gene (hERG) potassium channel (human, UniProt Q12809)", "sequence (Q12809 whole entry, looked up)": "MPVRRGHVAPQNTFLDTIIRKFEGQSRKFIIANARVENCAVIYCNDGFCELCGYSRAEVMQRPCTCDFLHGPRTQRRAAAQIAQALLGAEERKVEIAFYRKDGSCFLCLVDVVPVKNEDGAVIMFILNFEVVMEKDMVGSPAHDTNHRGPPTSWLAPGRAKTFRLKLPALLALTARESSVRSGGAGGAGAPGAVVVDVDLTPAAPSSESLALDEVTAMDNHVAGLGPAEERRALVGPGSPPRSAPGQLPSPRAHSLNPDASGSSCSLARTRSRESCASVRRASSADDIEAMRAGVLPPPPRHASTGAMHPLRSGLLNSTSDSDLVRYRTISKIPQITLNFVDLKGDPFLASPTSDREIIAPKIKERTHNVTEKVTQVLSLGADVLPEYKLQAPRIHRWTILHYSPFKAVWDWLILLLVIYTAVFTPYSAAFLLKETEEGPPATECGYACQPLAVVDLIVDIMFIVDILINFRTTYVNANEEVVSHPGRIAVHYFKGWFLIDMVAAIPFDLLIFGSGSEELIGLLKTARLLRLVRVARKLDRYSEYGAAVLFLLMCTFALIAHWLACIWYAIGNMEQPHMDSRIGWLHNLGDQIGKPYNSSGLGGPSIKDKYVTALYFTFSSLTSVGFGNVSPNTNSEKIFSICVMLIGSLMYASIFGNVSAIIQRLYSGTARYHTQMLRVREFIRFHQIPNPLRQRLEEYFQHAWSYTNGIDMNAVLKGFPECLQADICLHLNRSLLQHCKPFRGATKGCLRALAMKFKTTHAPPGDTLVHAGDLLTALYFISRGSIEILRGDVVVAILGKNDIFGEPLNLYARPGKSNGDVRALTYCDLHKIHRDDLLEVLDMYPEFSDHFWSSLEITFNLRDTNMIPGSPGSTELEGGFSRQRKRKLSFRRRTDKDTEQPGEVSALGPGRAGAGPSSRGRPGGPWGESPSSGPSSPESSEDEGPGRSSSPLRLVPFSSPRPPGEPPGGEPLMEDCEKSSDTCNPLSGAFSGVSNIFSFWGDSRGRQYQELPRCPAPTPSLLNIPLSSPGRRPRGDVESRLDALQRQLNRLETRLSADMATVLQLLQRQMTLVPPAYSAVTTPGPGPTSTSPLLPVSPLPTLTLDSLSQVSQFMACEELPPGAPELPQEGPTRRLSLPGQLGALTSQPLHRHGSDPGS", "experiment": "primary screen, population patch clamp on CHO cells stably expressing hERG", "units": {"hERG current change (%, negative = inhibition) at 1uM": "%"}, "values": [
      {"smiles": "Cc1cc(S(=O)(=O)N2CCOCC2)ccc1OCC(=O)NCC1CCCO1", "note": "(stereo not shown)", "hERG current change (%, negative = inhibition) at 1uM": 12.9},
      {"smiles": "Cc1cccc(C)c1NC(=O)CN(C)C(=O)c1cccc(S(=O)(=O)N2CCN(c3ccc(F)cc3)CC2)c1", "hERG current change (%, negative = inhibition) at 1uM": 11.5},
      {"smiles": "Cc1nnc(SCc2cc(=O)[nH]c(=S)[nH]2)s1", "hERG current change (%, negative = inhibition) at 1uM": 12.3},
      {"smiles": "CCc1ccc(-c2cc(C)no2)cc1S(=O)(=O)N1CCOc2ccc(C)cc21", "hERG current change (%, negative = inhibition) at 1uM": 15.8},
      {"smiles": "CCN(CC)C(=O)c1sc(NC(=S)N2CCN(C(=O)C3CCCO3)CC2)c(C(=O)OC)c1C", "note": "(stereo not shown)", "hERG current change (%, negative = inhibition) at 1uM": 9.08},
      {"smiles": "CCNC(=S)N1CCn2cccc2C1c1ccc(F)cc1", "note": "(stereo not shown)", "hERG current change (%, negative = inhibition) at 1uM": 2.63},
      {"smiles": "CCc1ccc(NC(=O)C(C)OC(=O)C2CCN(c3ccc(C(F)(F)F)cn3)CC2)cc1", "note": "(stereo not shown)", "hERG current change (%, negative = inhibition) at 1uM": -5.81},
      {"smiles": "O=C(NCc1ccco1)c1ccc(COc2ccccc2[N+](=O)[O-])o1", "hERG current change (%, negative = inhibition) at 1uM": 4.09},
      {"smiles": "COc1ccc(OCC(=O)NCCc2c[nH]c3ccccc23)cc1.O=C(O)C(=O)O", "hERG current change (%, negative = inhibition) at 1uM": 13.1},
      {"smiles": "CCCCCc1cc(=O)oc2c(C(CCN(CC)CC)c3ccc(N(C)C)cc3)c(OC)cc(OC)c12", "note": "(stereo not shown)", "hERG current change (%, negative = inhibition) at 1uM": -0.563},
      {"smiles": "CCN1CCN(CCNC(=O)c2ccc3c(c2)N(Cc2cccc(Cl)c2)C(=O)c2ccccc2S3=O)CC1", "note": "(stereo not shown)", "hERG current change (%, negative = inhibition) at 1uM": 12.9},
      {"smiles": "O=C(OCC(=O)N1CCOCC1)c1ccc2[nH]c3c(c2c1)CCCC3", "hERG current change (%, negative = inhibition) at 1uM": 6.84},
      {"smiles": "COc1ccc(NC2CCCN(C(=O)c3oc(C)cc3C)C2)cc1OC", "note": "(stereo not shown)", "hERG current change (%, negative = inhibition) at 1uM": 22.2},
      {"smiles": "CC(=O)Nc1nc(-c2ccc3c(c2)CCN3C(=O)C2CC2)c(C)s1", "hERG current change (%, negative = inhibition) at 1uM": 7.72},
      {"smiles": "CCc1nccn1CCC(=O)N1CCCC(Nc2ccc(F)cc2)C1", "note": "(stereo not shown)", "hERG current change (%, negative = inhibition) at 1uM": -2.46},
      {"smiles": "CC1(C)CC2CC(C)(CN2C(=S)Nc2ccccc2)C1", "note": "(stereo not shown)", "hERG current change (%, negative = inhibition) at 1uM": 10.4},
      {"smiles": "CCN(CC(=O)Nc1ccccc1OC)CC(=O)Nc1ccccc1-c1ccccc1", "hERG current change (%, negative = inhibition) at 1uM": -4.49},
      {"smiles": "CCSc1nnc2n1C(C)(C)Cc1ccccc1-2", "hERG current change (%, negative = inhibition) at 1uM": 14.2},
      {"smiles": "COc1ccc(-c2nn(-c3ccccc3)cc2C(=O)N/N=C/c2ccc([N+](=O)[O-])o2)cc1", "hERG current change (%, negative = inhibition) at 1uM": -13.5},
      {"smiles": "COc1ccc(Cl)cc1C(=O)NCc1ccc2c(c1)OCO2", "hERG current change (%, negative = inhibition) at 1uM": 13},
      {"smiles": "O=C(COc1ccc(Cl)cc1)Nc1ccccc1C(=O)NCc1ccco1", "hERG current change (%, negative = inhibition) at 1uM": 13.2},
      {"smiles": "O=C(/C=C(\\c1ccccc1)n1cncn1)c1ccccc1", "hERG current change (%, negative = inhibition) at 1uM": 14},
      {"smiles": "CCOC(=O)c1sc2nc(C)nc(Nc3ccc(OC)c(OC)c3)c2c1C", "hERG current change (%, negative = inhibition) at 1uM": 16.7},
      {"smiles": "COc1cccc(-n2c(N)cc(=O)nc2SCC(=O)Nc2cc(C)on2)c1", "hERG current change (%, negative = inhibition) at 1uM": 0.81},
      {"smiles": "O=C(NC(=S)NNC(=O)c1ccccc1F)c1cccnc1", "hERG current change (%, negative = inhibition) at 1uM": 5.32},
      {"smiles": "COc1ccc(-c2nc(CSCC(=O)NCc3ccc4c(c3)OCO4)c(C)o2)cc1OC", "hERG current change (%, negative = inhibition) at 1uM": -1.85},
      {"smiles": "O=C(N/N=C/C=C/c1ccccc1)NC1CCCCC1", "hERG current change (%, negative = inhibition) at 1uM": 14.8},
      {"smiles": "CCC1CCCCN1C(=O)c1nn2cccnc2c1Cl", "note": "(stereo not shown)", "hERG current change (%, negative = inhibition) at 1uM": 7.45},
      {"smiles": "O=C(CCCn1c(SCC(=O)NCC2CCCO2)nc2ccccc2c1=O)NCC1CCCO1", "note": "(stereo not shown)", "hERG current change (%, negative = inhibition) at 1uM": -1.12},
      {"smiles": "COc1ccc(CC(=O)Nc2nc(-c3ccc(F)c(F)c3)cs2)cc1OC", "hERG current change (%, negative = inhibition) at 1uM": 7.32},
      {"smiles": "Cc1ccc(S(=O)(=O)N(C)c2c(C)ccc(S(=O)(=O)N3CCN(C=O)CC3)c2C)cc1", "hERG current change (%, negative = inhibition) at 1uM": 1.14},
      {"smiles": "COC(=O)c1cc(S(=O)(=O)NCCCN2CCCC2=O)cn1C", "hERG current change (%, negative = inhibition) at 1uM": 11},
      {"smiles": "CCOC(=O)c1c(C)[nH]c(C(=O)COC(=O)c2ccc(O)cc2O)c1C.CN(C)C=O", "hERG current change (%, negative = inhibition) at 1uM": 10.5},
      {"smiles": "COC(=O)CSc1nccc(-c2ccc(F)cc2)c1C#N", "hERG current change (%, negative = inhibition) at 1uM": 12.1},
      {"smiles": "Cc1cc(NC(=O)c2ccc([N+](=O)[O-])cc2Cl)no1", "hERG current change (%, negative = inhibition) at 1uM": 16.1},
      {"smiles": "CCCCN(CCCC)CC(O)COc1ccccc1C(=O)Nc1ccccc1", "note": "(stereo not shown)", "hERG current change (%, negative = inhibition) at 1uM": -55},
      {"smiles": "CCCCc1cn(C[C@H]2CC[C@@H]([C@@H]3CC[C@H](Cn4cc(CCCC)nn4)O3)O2)nn1", "hERG current change (%, negative = inhibition) at 1uM": -31.8},
      {"smiles": "O=C(c1cc2ccccc2oc1=O)N(c1ccc(Cl)cc1)C1C=CS(=O)(=O)C1", "note": "(stereo not shown)", "hERG current change (%, negative = inhibition) at 1uM": 2.88},
      {"smiles": "Cc1cc(C(=O)OCC(=O)N2CC(=O)Nc3ccccc32)c(C)n1-c1ccc(F)cc1", "hERG current change (%, negative = inhibition) at 1uM": 6.7},
      {"smiles": "Cc1onc(C(=O)Nc2cccnc2Cl)c1[N+](=O)[O-]", "hERG current change (%, negative = inhibition) at 1uM": 9.55},
      {"smiles": "CN(C)/C(CN1CCCCC1)=C1\\N=C(c2ccccc2)OC1=O", "hERG current change (%, negative = inhibition) at 1uM": 1.43},
      {"smiles": "COc1ccc(-c2nnc(SCC(=O)Nc3cc(C)on3)n2N)cc1OC", "hERG current change (%, negative = inhibition) at 1uM": 17.1},
      {"smiles": "CN(C)/C=C(\\C#N)S(=O)(=O)C(C)(C)C", "hERG current change (%, negative = inhibition) at 1uM": 14.4},
      {"smiles": "CC1=Nc2cc([N+](=O)[O-])ccc2NC(C)(C)C1", "hERG current change (%, negative = inhibition) at 1uM": 0.171},
      {"smiles": "CC1=NN(C(N)=S)C(=O)C1N=Nc1ccc(Br)cc1", "note": "(stereo not shown)", "hERG current change (%, negative = inhibition) at 1uM": 11.3},
      {"smiles": "O=C(O)C1Sc2[nH]c(=O)sc2C2c3cc(Br)ccc3OC(=O)C12", "note": "(stereo not shown)", "hERG current change (%, negative = inhibition) at 1uM": 8.73},
      {"smiles": "COc1ccc(NC(=O)CN(c2cccc(F)c2)S(C)(=O)=O)cc1OC", "hERG current change (%, negative = inhibition) at 1uM": 11.6},
      {"smiles": "CCN(CC)CCN1C(=O)c2oc3ccccc3c(=O)c2C1c1cccc(Br)c1", "note": "(stereo not shown)", "hERG current change (%, negative = inhibition) at 1uM": -18},
      {"smiles": "CCCN(CCO)Cc1cccc(Br)c1", "hERG current change (%, negative = inhibition) at 1uM": 3.48},
      {"smiles": "COCCNC(=O)COC(=O)c1ccc(OCC(=O)Nc2ccccc2OC)c(OC)c1", "hERG current change (%, negative = inhibition) at 1uM": 9.82},
      {"smiles": "CCCCCCCN1C/C=C\\C(c2ccc(OC)cc2)N(Cc2ccc(F)cc2)C(=O)[C@H]1Cc1ccccc1", "note": "(stereo partly shown)", "hERG current change (%, negative = inhibition) at 1uM": 9.9},
      {"smiles": "O=P(Oc1ccccc1)(Oc1ccccc1)C(O)c1ccccc1", "note": "(stereo not shown)", "hERG current change (%, negative = inhibition) at 1uM": 5.38},
      {"smiles": "O=C(CN1C(=O)/C(=C/c2ccccc2)SC1=S)NC1C=CS(=O)(=O)C1", "note": "(stereo not shown)", "hERG current change (%, negative = inhibition) at 1uM": 10.3},
      {"smiles": "CCOC(=O)c1c(C)nc2sc(C(=O)Nc3ccc(OC)cc3)c(N)c2c1-c1ccc(OC)cc1", "hERG current change (%, negative = inhibition) at 1uM": 14},
      {"smiles": "CCOc1ncccc1C(=O)Nc1ncc(C)s1", "hERG current change (%, negative = inhibition) at 1uM": 10.7}
    ]}
  ]
}
